42 compounds from ChEMBL document CHEMBL5308541, “MAIP: An Open-Source Tool to Enrich High-Throughput Screening Output and Identify Novel, Druglike Molecules with Antimalarial Activity” (ACS Med Chem Lett, 2023) can be followed below.

Screen size: about 150,000 compounds; about 540 (0.36%) showed an effect of 50% or more. The list shows a part of the results.

The subject of the assay is Plasmodium falciparum. The assay can be described thus: Primary screen in NF54 nanoGlo assay, in single point, at 2uM, 72h; a lower Z score goes with more inhibition. The settings on record: timepoint 72 hour. The format is functional, Erythrocyte.
As to `CC(=O)N1CCC(N[C@@H]2C[C@@H](O)[C@H](CO)[C@H]2Cc2ccnc(-c3cccc(C(F)(F)F)c3)n2)CC1`, the % Inhibition (usually the relative decrease from the control value, in per cent) is listed as -5% and the Z score was found to be 0.69.
On the same counts, the results for `COc1ccccc1N1CCN([C@@H]2[C@H](O)[C@H](CO)O[C@@H]2CNC2CCN(C)CC2)CC1` are 3% and -0.41.
In the case of `CN1CCN(c2ccc(CNCCN3CCN(C(=O)OC(C)(C)C)CC3)cc2)CC1`, the “% Inhibition” value is on record as 1% and the Z score is given as -0.16.
Regarding `Clc1cnc(C2CCN(Cc3ccc4cn[nH]c4c3)CC2)nc1`, the “% Inhibition” value was determined as 2% and the Z score is given as -0.29.
As to `O=S1(=O)CCCN1c1cccc(CNC2CCC(c3ccccc3)CC2)c1` (centres undefined), the “% Inhibition” value is -6% and the Z score is 1.12.
As for `CC(C)(C)OC(=O)N1CC(O)(CNc2ncnc3cc(F)c(F)cc23)C1`, the “% Inhibition” value is recorded as -6% and the Z score was found to be 1.11.
Regarding `Cc1cc(C)c2c(NCCN3CCN(Cc4ccccc4)CC3)ncnc2n1`, the “% Inhibition” value is reported as -13% and the Z score is on record as 2.29.
Regarding `COCCc1noc(-c2ccc(N3CCCN(c4ccncc4C)CC3)nc2)n1`, the “% Inhibition” value was found to be 7% and the Z score is -1.44.
For `CN(CCc1ccncc1)C(=O)N[C@H]1CCOC2(CCCCC2)C1`, the “% Inhibition” value was 1% and the Z score was -0.18.
On the same counts, the results for `CN1C2CCC1CN(C(=O)c1cccc(-c3cccc4c(N)ccnc34)c1)CC2` (centres undefined) are 5% and -0.79.
Consider `O=C(CCC1CCCC1)N1CC2CN(c3ncnc4[nH]ccc34)CC2(CO)C1` (centres undefined), for which the “% Inhibition” value is recorded as -9% and the Z score is recorded as 1.56.
For the compound `CC1(C)CC(NCc2csc(-c3ccsc3)n2)CC(C)(C)N1`, the “% Inhibition” value is given as 1% and the Z score is given as -0.19.
With `COc1ccc(OC)c([C@H]2CCN(C(=O)c3ccnc4ccccc34)C2)c1`, the “% Inhibition” value is given as 3% and the Z score is recorded as -0.5.
For the compound `C[C@@H](CN1CCCCCC1)N1CCCN(S(=O)(=O)N2CCCC2)CC1`, the “% Inhibition” value is given as -2% and the Z score was found to be 0.26.
In the case of `OCc1nc2cc(-c3cccc4[nH]ccc34)ccc2[nH]1`, the “% Inhibition” value is reported as -5% and the Z score came out at 0.9.
Regarding `Cc1cccc(CCNC(=O)N2CC3CCC2C3)n1` (centres undefined), the “% Inhibition” value is listed as -6% and the Z score stood at 1.37.
Consider `Cc1cccc(Nc2nc(N)nc(CN(C)C3CC4CC(=O)N(C)CC4C3)n2)c1` (centres undefined), for which the “% Inhibition” value was -7% and the Z score worked out at 1.04.
On the same counts, the results for `COCCC1(NC(=O)c2cc(-c3cnc4[nH]ccc4c3)ccn2)CCNCC1` are -21% and 3.26.
In the case of `C[C@@H]1C(=O)N2CCC[C@@H]2CN1C(=O)c1cc(-c2ccc(Cl)cc2)nc2ccccc12`, the “% Inhibition” value amounted to 9% and the Z score is recorded as -1.73.
Turning to `COCCN1CCC(CNc2nncc(-c3c(OC)cccc3OC)n2)CC1`, the “% Inhibition” value is listed as -3% and the Z score amounted to 0.58.
For the compound `c1ccc(N2CCN(Cc3ccc(OC[C@H]4CCCNC4)cc3)CC2)cc1`, the “% Inhibition” value is listed as -4% and the Z score came to 0.64.
Take `COc1ccc2oc([C@H](C)NCc3cnc(C)o3)c(C)c2c1`: the “% Inhibition” value is reported as -5% and the Z score worked out at 0.94.
`Cc1nn(C)c(C)c1-c1cc(C(=O)NC2CCN(CC(F)F)CC2)[nH]n1`: the “% Inhibition” value is on record as -7% and the Z score was 1.14.
Take `Cc1ccc(NC(=O)N2CCC(=O)N3CCOC[C@H]32)cc1`: the “% Inhibition” value is recorded as -10% and the Z score came out at 1.54.
On the same counts, the results for `CCCN(Cc1nnc(-c2ccco2)o1)C(=O)COc1ccc2oc3ccccc3c2c1` are 4% and -0.76.
`CC(C)(C)OC(=O)N1CCN(CC(O)CN2CCCC2CO)CC1` (centres undefined): the “% Inhibition” value is given as -3% and the Z score was determined as 0.65.
As to `O=C(Cc1[nH]nc2ccccc12)N1CC2CCCC(O)(c3ccccc3)C2C1` (centres undefined), the “% Inhibition” value was determined as 2% and the Z score is listed as -0.43.
Consider `COc1cccc(-c2cc3cc(Cl)ccc3[nH]2)c1`, for which the “% Inhibition” value was -1% and the Z score worked out at 0.15.
Regarding `c1nc(NCC2CC2)cc(N2CCC[C@H](N3CCCC3)CC2)n1`, the “% Inhibition” value is -12% and the Z score is given as 2.03.
Regarding `CCNc1ncc(C(=O)NC(C2CCNCC2)[C@H]2C[C@H](O)C2)cn1` (some centres undefined), the “% Inhibition” value is given as -3% and the Z score is reported as 0.54.
As for `CC(C)C[C@@H](CN=C(N)NC(C)C)N(C)C`, the “% Inhibition” value is listed as 8% and the Z score is listed as -1.63.
On to `CN(C[C@H](O)CN1CCc2ccccc2CC1)C(=O)c1cc(-c2ccc(F)cc2)[nH]n1`, for which the “% Inhibition” value was 3% and the Z score is given as -0.47.
With `O=C1NC[C@@H](O)CC12CCN(c1nnc(Cc3ccccc3)s1)CC2`, the “% Inhibition” value is listed as -3% and the Z score turned out to be 0.44.
In the case of `OC1CCC1Nc1ncnc2cc(F)ccc12` (centres undefined), the “% Inhibition” value is listed as -2% and the Z score is given as 0.37.
The corresponding values for `Cc1ccc(CN2CCc3onc(-c4ccccc4)c3C2)c2cccnc12` are 4% and -0.82.
Take `OCC[C@]1(CNc2nccc(N3CCOCC3)n2)CCOC1`: the “% Inhibition” value is -1% and the Z score is recorded as 0.16.
On to `COCCNc1noc(-c2ccc(Cl)cc2)c1C(=O)NC1CNCCC1OC` (centres undefined), for which the “% Inhibition” value came out at 2% and the Z score is on record as -0.38.
For the compound `CN1C[C@@H](NC(=O)c2ccc(-c3ccc4c(ccn4C)c3)cc2)CCC1=O`, the “% Inhibition” value turned out to be 2% and the Z score is recorded as -0.38.
Consider `CN(CCCNC1CCC2(CCNCC2)CC1)c1ccccc1`, for which the “% Inhibition” value was 6% and the Z score is -1.27.
The corresponding values for `O=C(NCc1ccc2c(O)ccnc2c1)[C@@H]1CCCN1C1CCCC1` are -6% and 1.08.
As to `O=C(Nc1ccc2cn[nH]c2c1)NC1CCN(C2CCOCC2)CC1`, the “% Inhibition” value is -4% and the Z score is reported as 0.84.
`COC[C@@H](C)CC(=O)Nc1cncc(-c2cnc3[nH]ccc3c2)c1`: the “% Inhibition” value is recorded as -19% and the Z score is 3.39.
